Here are results for 22 molecules from PMC12136788.

This is one part of the list.

The labels stand for the following.
B1: chr11:29607782:29607783:+_ENSMUSG00000020458_ENSMUST00000102843|mus_mus|motif|central (ssRNA)
RNA: GGGAGUUCUACAGUCCGACGAUCUGCAUUAAAACUUUCAGGCUCUUUAAUUUCUUCCUUUGAGUCCGAUGUUUUUAGUGCGGCACUCAUGGCUUCUUCAUAUGGUGGGGGAUUUUCAGGCUCAAGCUUUAUACCGUCAUAACUCAACAGAGGAUUGAGCAUCA
B2: 66753787_66753907_340_3pUTR_ENSG00000205268_ENST00000401827|human|control|control (ssRNA)
RNA: GGGAGUUCUACAGUCCGACGAUCGCCGCCGGCCCCUGCAGUGGGAGGGGGCCGCGGCUCGGGGGCUCCGGGCCGAGACGGGGGCAGGGCGGGCGGGGACCGACCCCGGGCUGGGAAGCCGCGCUCACGCCUCCCCAACCCCAGCAACAGAGGAUUGAGCAUCA
B3: chr4:134026413:134026414:+_ENSMUSG00000028832_ENSMUST00000130253|mus_mus|motif|central (ssRNA)
RNA: GGGAGUUCUACAGUCCGACGAUCUACAAAUCAAAAGAAAUCAAGUAACAUUUUUUUUUUAAAAAGCUUAACAUUUUGGACGGACAAAUACCAUCUUGAGGAAUUAGUACUUGACAGUCACUCCCUAGGAAACAAAGAAUGGUGCAACAGAGGAUUGAGCAUCA
B4: chr1:151039735:151039736:+_ENSG00000213190_ENST00000368921|hu_hu|FALSE|FALSE (ssRNA)
RNA: GGGAGUUCUACAGUCCGACGAUCCCCAGGCCUUCCAGCUCCGACAGAUCCAGUUCUGGGAUGGGCAUCCUCCAGAAAAGAAAGGAACUGUACUGGCUACUCACAGGGUCCCUCAUAGCUUCCUGUUAUCAAUCAAUUACUGGCCAACAGAGGAUUGAGCAUCA
B5: chr1:163122374:163122375:-_ENSG00000143248_ENST00000313961|hu_hu|FALSE|FALSE (ssRNA)
RNA: GGGAGUUCUACAGUCCGACGAUCAGUGAAGUGGUCAAUAUUCACCUCUUUAGGAGCCUCCGUUUGAAUGAAUUCUUCAUAAAUUUGCUUUGCCUUCUCAGCCAUCUUGGCAGGGGACUUGAUCUUCUUGUAAUCCUCACAGGCCAACAGAGGAUUGAGCAUCA
B6: chr17:64801638:64801639:+_ENSG00000154229_ENST00000413366|hu_mus|hu_hu_hu_mus_False|88_98 (ssRNA)
RNA: GGGAGUUCUACAGUCCGACGAUCUAUAUAUAUAUAUAUAUACACACACAUAUGUAGUAAAACCCUAGUUAAACGUGUAAAGUAGCCAUUCAUUUUUAAAAUUACAUCUACAUUAAAAAAUUAAUAUAUCUGAUAGAGUGCCAGCAACAGAGGAUUGAGCAUCA
B7: 119990608_119994092_1138_CDS_ENSMUSG00000061306_ENSMUST00000103018|mouse|control|control (ssRNA)
RNA: GGGAGUUCUACAGUCCGACGAUCAAAGGUUCCAUCUUUUUGCUGCUGCUCAAACAGCAGUGUGUUCAAGGCCUGCCUGCACGGCAGAAUCAUCAUGGGGAAGCCCACAGCCACAGACAUCACGAAGCCCACUCGGAUCAUCUCCAACAGAGGAUUGAGCAUCA
B8: chr17:65740002:65740003:+_ENSG00000130935_ENST00000581375|hu_hu|hu_hu_hu_mus_False|8_58 (ssRNA)
RNA: GGGAGUUCUACAGUCCGACGAUCAACAAAUCUUUCUUCCCUGGACGAACAGGAAGAUUCAUAUUAAAAAAAAUAUAUGUCUAUGAAGUUAGGUGUGGUGGCCACACCUUUACUCCCAGCACUUUGGGAAUAUAAUCUCUGAGUCAACAGAGGAUUGAGCAUCA
B9: chr14:78183846:78183847:+_ENSG00000119705_ENST00000557342|hu_hu|hu_hu_hu_mus_False|8_108 (ssRNA)
RNA: GGGAGUUCUACAGUCCGACGAUCUCUGUCUCAAAAAUCUUCAUCAGAUGUUUGAGCUCCGUGCAAAGCCUUUGCUCUUUGAGCUUGAACGUGGAUCUAUGGGAGGGAAAGCACUGUCAGAAAAGGUUGUAGUGCAUUUAAAGACAACAGAGGAUUGAGCAUCA
B10: chr4:144460044:144460045:+_ENSG00000153147_ENST00000283131|hu_mus|hu_hu_hu_mus_False|58_98 (ssRNA)
RNA: GGGAGUUCUACAGUCCGACGAUCACGGUCCAUAGCCUGAAGAUCUACUUGCGGAUUCCAAUCUGAGUCAUAUAAAAUUACUACAUCAGCAGUUGCAAGAUUGAUGCCCAGACCACCAGCACGUGUGCUUAGCAUAAAUACAAACAACAGAGGAUUGAGCAUCA
B11: chr1:115276673:115276674:-_ENSG00000009307_ENST00000339438|perfect_dup|motif|central (ssRNA)
RNA: GGGAGUUCUACAGUCCGACGAUCUGUGAAUUCCACGUCAUCUCCAGGCUGUAGGGUUUCUAGGUCACCUUUAAAUUCACGGUAGUGAAAGAAUAUCUCUUUUACAACAUCACCUCUUUCGAUAAAGCCAAACGCCUCCUUCAUCAACAGAGGAUUGAGCAUCA
B12: chr14:78183846:78183847:+_ENSG00000119705_ENST00000557342|hu_hu|hu_hu_hu_mus_False|38_48 (ssRNA)
RNA: GGGAGUUCUACAGUCCGACGAUCUCUCAGAAAUCUUUCUUCAUCAGAUGUUUGAGCUCCGUGCAAAGCCUUUGCUCUUUGAGCUUGAACCUGGACCUUUACUCCAUAAAGCACUGUCAGAAAAGGUAAUUUUUUUUUUAAAGACAACAGAGGAUUGAGCAUCA
B13: chr10:19624517:19624518:-_ENSMUSG00000020003_ENSMUST00000020182|mus_mus|motif|central (ssRNA)
RNA: GGGAGUUCUACAGUCCGACGAUCCUCAUUGUUUUCACUCCAGGUAACGUCAAACAAGCCGUCAUUCCAGUCAAAGCUUCGGAAAAUCUGAAGUCCAGAUUCAUUUUGAUCCAAUACUAAUAGAGUUCCACAGCCCGCGAUGCCCAACAGAGGAUUGAGCAUCA
B14: 56591734_56591854_1769_CDS_ENSG00000188021_ENST00000338222|human|control|control (ssRNA)
RNA: GGGAGUUCUACAGUCCGACGAUCUAUGGGCCCAAUGGGGCCUAUGGGGGUAAAAGGGACUAUAGGGCCUAUGGGGCCUAUGGGGGUGACUGGGCCUACAGGGCCUAUAGCGGUUCCCAGCACCCCCACCCCCACACCUGGAGUCAACAGAGGAUUGAGCAUCA
B15: 47705432_47705552_2233_CDS_ENSG00000095002_ENST00000543555|human|control|control (ssRNA)
RNA: GGGAGUUCUACAGUCCGACGAUCAAAAUGGGUUGCAAACAUGCAAAAAGCACCAAUCUUUGUUGCAAUGUAUUCUGAUAUAGCCCAUGCUAACCCAAAUCCAUCGUAGGUAGAAGUUCCUCUUCCCAAUUCAUCUAUGAUUAUCAACAGAGGAUUGAGCAUCA
B16: chr17:30678820:30678821:+_ENSG00000010244_ENST00000394673|hu_hu|FALSE|FALSE (ssRNA)
RNA: GGGAGUUCUACAGUCCGACGAUCAUUUAAAAUGCUUUGCUUUUUGGUGCUGAAUAAGGAUCUUCUCAUCAUCAAAAUCUCUAUUACAAUACCAGCACCACGGCUUCAGCUGCUUCUUCUUCUUGCGACCCAUAACUGUGUUCUCAACAGAGGAUUGAGCAUCA
B17: chr4:115894766:115894767:+_ENSMUSG00000028698_ENSMUST00000030464|mus_hu|mus_mus_mus_hu_True|1_88 (ssRNA)
RNA: GGGAGUUCUACAGUCCGACGAUCUUCCACACGGAAAUGUACUUCGGGUUUCCAACGGGCCAGUACCAGUCCGGCCAAACUACCCGAACAGGGUCCUCCCCCUCUCUCCUACAGAACACAACAAAAUGCCCCCGAACCCCGAACCAACAGAGGAUUGAGCAUCA
B18: chr8:74858975:74858976:-_ENSG00000154582_ENST00000284811|hu_mus|hu_hu_hu_mus_True|18_88 (ssRNA)
RNA: GGGAGUUCUACAGUCCGACGAUCGACCUUGUAGGUAAAAUACAUGCAUACUUUCGAUAGCACAUGUGAGGGGAUCUCUCUAAAAUUGACCUCGUUGGUUUCAUUCUCAGCAAACUGACCUGGGCCACUCAACAUAGCCUUUAUCAACAGAGGAUUGAGCAUCA
B19: chr4:175158536:175158537:-_ENSG00000164117_ENST00000503293|hu_mus|FALSE|FALSE (ssRNA)
RNA: GGGAGUUCUACAGUCCGACGAUCGAUUUUACACACAGGCUGGACUGGAGUGACCAGUGCUGAUGCAACCCUGCUGCCACUAAGUCUGUCCCUGGGUAGCCUCAGUCUGGAGUAAAAAGUUGAAGUUCGAACACUUGUGCUUUUCAACAGAGGAUUGAGCAUCA
B20: 49558617_49558737_2561_CDS_ENSMUSG00000037892_ENSMUST00000035931|mouse|control|control (ssRNA)
RNA: GGGAGUUCUACAGUCCGACGAUCCCUCGUUGCAAACAGGACCAUAAUAACCAGCAACACAGCACAAAUUGCUCCCAAGGAAAUAAUUAUGAUCAUGGACACAUCCAAGGAUGCGCGGCUGACAGAGGUCAUGGCUGUGCUUGUCAACAGAGGAUUGAGCAUCA
B21: 99856004_99856124_904_CDS_ENSG00000132424_ENST00000438806|human|control|control (ssRNA)
RNA: GGGAGUUCUACAGUCCGACGAUCUUCUGUGGCCUUUUUUUCUUUUUUGGACAAUUGUGAACGUUGUUGUUCCAUUCUUUCUUUCUCCAAUUUCUUCUGCUUUUCACGUUCCAUUUUUUCAAGACCUUCGCGAAUCCAAGCGGGCAACAGAGGAUUGAGCAUCA
B22: chr21:38862523:38862524:+_ENSG00000157540_ENST00000338785|hu_mus|motif|central (ssRNA)
RNA: GGGAGUUCUACAGUCCGACGAUCUCGGAAGUUGGUGUUUCUCAACAAAUCAUAGAGAUUAUAGGACAGCAUUUCAAACACGGAACAGAGAUGGUUUCGAAACAUAAAGUGGCGUUUCAAAUGCACUAUGUAGUACUUCAUUUCCAACAGAGGAUUGAGCAUCA

The assay deals with T1, UNK ZnF1-3 (human, UniProt Q9C0B0 31-174).
T1 sequence: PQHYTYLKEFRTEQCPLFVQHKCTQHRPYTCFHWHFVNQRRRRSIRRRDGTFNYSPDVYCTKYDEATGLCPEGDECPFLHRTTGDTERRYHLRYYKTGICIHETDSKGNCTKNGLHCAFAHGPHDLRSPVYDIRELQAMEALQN
The assay is described as follows: nsRBNS (natural sequence RNA bind-n-seq); RBNS binding buffer (assumed for nsRBNS): 25 mM Tris pH 7.5, 150 mM KCl, 3 mM MgCl2, 0.01% Triton X-100, 500 ug/ml BSA, 20 U/ml SUPERase-In, 4 C; UNK is unkempt and MSI1 is Musashi-1; names of the RNAs are library labels; protein concentration not given here; high values mean tight binding.
As for B1, the binding signal was 0.58 enrichment R.

As for B2, the binding signal was found to be 0.68 enrichment R.

B3 showed a binding signal of 1.5 enrichment R.

B4 yielded a binding signal of 1.51 enrichment R.

Regarding B5, the binding signal was 1.02 enrichment R.

For the molecule B6, the binding signal stood at 1.74 enrichment R.

For B7, the binding signal worked out at 0.463 enrichment R.

B8: the binding signal is 1.12 enrichment R.

With B9, the binding signal turned out to be 1.34 enrichment R.

The molecule B10 returned a binding signal of 1.36 enrichment R.

B11: the binding signal was 1.2 enrichment R.

B12 came in with a binding signal of 0.664 enrichment R.

In turn, B13 returned a binding signal of 0.74 enrichment R.

B14 displayed a binding signal of 0.573 enrichment R.

B15: the binding signal came to 0.665 enrichment R.

B16 came in with a binding signal of 0.549 enrichment R.

B17: the binding signal came out at 1.1 enrichment R.

As to B18, the binding signal amounted to 0.716 enrichment R.

B19 yielded a binding signal of 0.796 enrichment R.

B20 gave a binding signal of 1.44 enrichment R.

Regarding B21, the binding signal worked out at 0.236 enrichment R.

Regarding B22, the binding signal was found to be 1.06 enrichment R.
